These results are taken from PubChem BioAssay AID1645887 (National Center for Advancing Translational Sciences (NCATS), 2021).

Structures are written as SMILES. Values joined by “and” are separate entries in the source; they are usually repeats but may differ in a detail not shown here. Identical values can stand only once. Among all 16,000 compounds or so, about 40 (0.2%) were called active. About 1% were inconclusive and are not listed. Calls come from the whole dose curve; as a rule, active = well fitted activation curve with a large enough effect; inconclusive = small, poorly fitted or top-dose-only effect, or another doubt; inactive = no such curve, though single readings can be large or run the other way. This is one part of the list.
% is set by controls: 0 for no effect and ±100 for the full control effect.

In the assay the target is Rap guanine nucleotide exchange factor 4 (Homo sapiens) (UniProt Q8WZA2). The experiment in a line: Validation qHTS for agonist of cAMP-regulated guanine nucleotide exchange factor 4 (EPAC2).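 Note: exchange makes BODIPY-GDP fluorescence drop when released from Rap1B; series mostly up to about 150 µM.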 To be noted: EPAC2 Rap1B BODIPY-GDP exchange, fluorescence; activation: hits give high values. The method, boiled down: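 Signal normalized against 6.5 mM cAMP as agonist control. Mix of EPAC2 (100 nM), RAP1B-BODIPY-GDP (250 nM) and GDP (50 uM) was read kinetically at 480/540 nm, every 5 min over 30 min, after 5 min room-temperature incubation with compound.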
Chain of UniProt Q8WZA2 (Q8WZA2 whole entry, looked up): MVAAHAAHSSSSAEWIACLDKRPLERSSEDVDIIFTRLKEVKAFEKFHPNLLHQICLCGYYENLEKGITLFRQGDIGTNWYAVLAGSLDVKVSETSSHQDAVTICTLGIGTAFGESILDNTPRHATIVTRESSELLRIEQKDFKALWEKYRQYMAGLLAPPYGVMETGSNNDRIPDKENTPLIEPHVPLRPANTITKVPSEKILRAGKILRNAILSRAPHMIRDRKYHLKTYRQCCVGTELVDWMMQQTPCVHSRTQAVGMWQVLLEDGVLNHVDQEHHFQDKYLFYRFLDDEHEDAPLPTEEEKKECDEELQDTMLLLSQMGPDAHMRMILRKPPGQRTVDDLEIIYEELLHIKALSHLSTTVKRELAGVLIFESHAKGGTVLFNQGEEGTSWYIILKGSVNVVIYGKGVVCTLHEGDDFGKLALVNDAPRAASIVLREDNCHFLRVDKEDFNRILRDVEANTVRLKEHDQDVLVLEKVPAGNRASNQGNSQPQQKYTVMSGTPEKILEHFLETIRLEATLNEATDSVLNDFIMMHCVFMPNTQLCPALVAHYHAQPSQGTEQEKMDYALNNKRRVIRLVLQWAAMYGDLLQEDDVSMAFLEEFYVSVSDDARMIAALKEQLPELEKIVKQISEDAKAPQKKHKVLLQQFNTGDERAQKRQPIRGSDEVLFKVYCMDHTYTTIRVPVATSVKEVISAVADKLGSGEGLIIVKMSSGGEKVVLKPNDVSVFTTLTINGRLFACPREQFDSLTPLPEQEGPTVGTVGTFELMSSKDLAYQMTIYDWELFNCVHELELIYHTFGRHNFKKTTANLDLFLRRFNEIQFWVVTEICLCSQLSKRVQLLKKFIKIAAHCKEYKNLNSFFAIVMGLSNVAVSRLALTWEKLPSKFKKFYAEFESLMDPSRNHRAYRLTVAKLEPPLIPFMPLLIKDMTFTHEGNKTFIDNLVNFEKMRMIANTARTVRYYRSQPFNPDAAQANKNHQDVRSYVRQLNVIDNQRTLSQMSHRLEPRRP
A general note: qHTS replaces the single test concentration by a dilution series.
For `COc1cc(/C(=C/c2ccccc2)c2ccccc2)c2c(c1)oc1ccccc12`, the activation was inactive: -7.45%.
Regarding `COc1ccc(N2C(=O)[C@@H]3C[C@H]2CN3Cc2cccn2-c2ccc(Cl)cn2)c(C)c1`, the activation was inactive: -26.1%.
Then `CCCCCCCC/C=C\CCCCCCCC(=O)O`, with inactive: -11.3%.
Regarding `N#Cc1cccc(-c2ccc3ncnc(NC4CCNCC4)c3c2)c1`, the activation was inactive: -5.27%.
On to `CCC(=O)N[C@@H]1c2ccccc2C2(CCN(Cc3[nH]c4c(Cl)cccc4c3C)CC2)[C@H]1OC`, for which the activation was inactive: -12.4%.
Then `CN1CCCC(CNC(=O)c2cnn(-c3ncc4c(n3)-c3ccccc3CC4)c2C2CC2)C1` (configuration not stated), with inactive: -10.8%.
Then `CNC1C(O)C(O[C@H]2C(O)[C@@H](OC3OC(CN)=CCC3N)[C@H](N)C[C@@H]2N)OC[C@]1(C)O` (some centres not stated), with inactive: -17.3%; and `Cc1nc2cnc(Oc3ccccc3)nc2n(-c2ccccc2)c1=O`, with inactive: -7.99%.
Then `O=C(C[n+]1ccccc1Br)c1ccc(-c2ccccc2)cc1`, with inactive: -21.3%.
`COc1cc2c(cc1OC)C(c1c[nH]c3ccccc13)NCC2` (configuration not stated): the activation is inactive: 18.4%.
Then `CCCCC[C@H](O)CC(=O)CCc1ccc(O)c(OC)c1`, with inactive: -10.3% and inactive: -20.9%; and `CCOC(=O)C[C@H]1c2ccccc2S(=O)(=O)N1Cc1cc(OC)c(OC)c(OC)c1`, with inactive: -3.72%; and `CC(=O)OC[C@H]1O[C@@H](O[C@H]2[C@H](O)[C@@H](OC(=O)c3ccccc3C(=O)O)[C@H](O)O[C@@H]2COC(C)=O)[C@H](O)[C@@H](OC(=O)c2ccccc2C(=O)O)[C@@H]1O`, with inactive: -9.7%.
Then `Cc1cc(O)cc(=O)o1`, with inactive: -4.17%; and `Cn1c(=O)c(CCc2ccccc2)nc2cnc(Oc3ccccc3)nc21`, with inactive: 11%.
Then `Cc1cccc(CNC(=O)c2cnn(-c3nccc(-c4cccs4)n3)c2C(C)C)n1`, with inactive: -64.3%.
With `C#CCOc1ccc2c(C)cc(=O)oc2c1`, the activation was inactive: -10.7%.
Then `COc1ccc2[nH]c(S(=O)Cc3ncc(C)c(OC)c3C)nc2n1` (configuration not stated), with inactive: -19.9%; and `CS(=O)(=O)Nc1cccc(-c2cncnc2NCc2ccccc2)c1`, with inactive: -11.8%; and `CCC1=C[C@@H]2CN(C1)Cc1c([nH]c3ccccc13)[C@@](C(=O)OC)(c1cc3c(cc1OC)N(C)[C@@H]1[C@@](O)(C(=O)OC)[C@H](OC(C)=O)[C@]4(CC)C=CCN5CC[C@]31[C@@H]54)C2`, with inactive: -3.74%.
As for `CCc1c(C(=O)NCCc2ccc(N3CCCCC3)cc2)[nH]c2ccc(Cl)cc12`, the activation was inactive: 3.38%.
Then `Oc1ccc(C(O)CNCCCCCCNCC(O)c2ccc(O)c(O)c2)cc1O` (configuration not stated), with inactive: -15.6%; and `Cc1cc(C(=O)Nc2ccccc2-c2nc(CNC(=O)c3ccccc3Cl)c(C)o2)c(C)o1`, with inactive: -6.95%.
In the case of `CCCCN(CCCC)C(=S)[S-].CCCCN(CCCC)C(=S)[S-].[Zn+2]`, the activation is inactive: -1.83%.
Then `CCN(Cc1ccncc1)Cc1ccc2c(c1)CN(C(=O)c1ccccc1)CCO2`, with inactive: 0.0322%.
Then `Cc1cccc(Nc2ncccc2C(=O)O)c1C`, with inactive: -1.47%; and `O=C1CCN(CCc2ccccc2)CCN1[C@H](CO)c1ccccc1`, with inactive: -15.2%; and `Cc1ccc(F)cc1CNC(=O)c1sc2ncnc(NCC3CCCO3)c2c1C` (configuration not stated), with inactive: 0.647%.
With `COc1ccc(Oc2ncc3nc(-c4ccc(F)cc4)c(=O)n(CCC#N)c3n2)cc1`, the activation is inactive: 6.35%.
Then `S=P(N1CC1)(N1CC1)N1CC1`, with inactive: -1.27% and inactive: 13.2% and inactive: -6.56%; and `COC(=O)C1CCN(Cc2ccc3c(c2)CN(C(=O)c2ccc4nc(C)c(C)nc4c2)CCO3)CC1`, with inactive: -10.6%; and `COCCN(C)C(=O)c1cnn(-c2nccc(-c3cc(C)sc3C)n2)c1C`, with inactive: -2.24%.
Then `COc1cc(N)c(Cl)cc1C(=O)NC1CCN(Cc2ccccc2)CC1`, with inactive: -11.9% and inactive: -12.4%; and `O=c1c(-c2cccc(F)c2)nc2cncnc2n1Cc1ccccc1`, with inactive: 5.38%; and `COc1ccc(SC[C@H](Cc2ccccc2)N2CC[C@@H](O)CCC2=O)cc1`, with inactive: -21.1%.
Then `COC(=O)N1CCC2(CCCN(C(=O)Nc3ccc(OC)cc3)C2)CC1`, with inactive: -15.1%; and `COc1cccc(CNC(=O)c2c(OC)cc(=O)n3c2CCN(C(=O)C2=C(C)OCCO2)CC3)c1`, with inactive: -9.38%; and `CCN1CCCC1CNC(=O)c1cc(S(=O)(=O)CC)c(N)cc1OC` (configuration not stated), with inactive: -15.3% and inactive: -10.4%.
Consider `Nc1nc(N)nc(-c2cc(Cl)ccc2Cl)n1`, for which the activation is inactive: -5.11%.
Take `CCOC(=O)[C@H](CCc1ccccc1)N[C@@H](C)C(=O)N1CC2(C[C@H]1C(=O)O)SCCS2`: the activation was inactive: -2.62%.
Then `NC(N)=NCCN1CCCCCCC1`, with inactive: -2.87% and inactive: 12.9%; and `COCC(=O)N1CCC[C@@]2(CCN(Cc3nccs3)C2)C1`, with inactive: 1.3%.
Then `Cc1cnc(-n2ncc(C(=O)N(C)C3CCOC3)c2-c2cccs2)nc1-c1ccc(F)cc1` (configuration not stated), with inactive: -13.7%; and `Cc1nnsc1C(=O)NCC1Cc2cccc(-c3ncccn3)c2O1` (configuration not stated), with inactive: -8.82%; and `C[N+](C)(C)CCOP(=O)([O-])OP(=O)(O)OCC1OC(n2ccc(N)nc2=O)C(O)C1O` (configuration not stated), with inactive: 4.48%.
Then `COCCn1c(=O)c(CCc2ccccc2)nc2cnc(Nc3ccccc3)nc21`, with inactive: -13.8%; and `CC1CCc2cc(F)cc3c(=O)c(C(=O)O)cn1c23` (configuration not stated), with inactive: -4.41%.
Regarding `O=C(NCC1CCCCN1)c1cc(OCC(F)(F)F)ccc1OCC(F)(F)F` (configuration not stated), the activation was inactive: -1.72% and inactive: -0.804%.
Then `OC[C@@H](O)[C@H](O)[C@H](O)[C@@H](O)CO`, with inactive: -5.64% and inactive: -17%; and `COc1cc2c(cc1OC)-c1c(oc3cc(O)cc(O)c3c1=O)CO2`, with inactive: -10.8%; and `Cc1ccc(SC[C@H](C)CN2CC[C@H](O)CCC2=O)cc1`, with inactive: -4.87%.
Then `CN[C@@H]1[C@@H](O)[C@@H](O[C@@H]2[C@H](O)[C@H](O[C@H]3OC(CN)=CC[C@H]3N)[C@@H](N)C[C@H]2N)OCC1(C)O` (some centres not stated), with inactive: -20.8%; and `COC(=O)/C(=C1\OC(=O)C(c2ccccc2)C1=O)c1ccccc1` (configuration not stated), with inactive: -7.48%; and `COc1cc2ccc(=O)oc2c(O)c1OCC=C(C)C`, with inactive: 2.65%.
Then `COC(=O)[C@@H]1CCCN1Cc1ccc2c(c1)CN(Cc1ccc3c(c1)OCCO3)CCO2`, with inactive: -9.33%; and `CCCCOc1ccc(OCCCN2CCOCC2)cc1`, with inactive: -3.48% and inactive: -18.1%; and `CCCOc1ccc2nc(NC(=O)OC)[nH]c2c1`, with inactive: 5.46%.
Regarding `FC(F)(F)c1cnc(-c2cc3c(c(OCC4CCCO4)c2)OCCN(Cc2cccn2-c2nccs2)C3)c(Cl)c1` (configuration not stated), the activation was inactive: -8%.
As to `Cc1cccc(CNc2cc(-c3ccoc3)ncn2)c1`, the activation was inactive: -12.4%.
Then `CC1CCC2C(C)(C)C3CC12CC[C@]3(C)O` (some centres not stated), with inactive: -7.82%; and `Cc1ccc(SC[C@H](C)CN2CC[C@H](C(C)(C)C)CCC2=O)cc1`, with inactive: -16.4%; and `CN1CCN(c2ncc3nc(-c4ccc(F)cc4)c(=O)n(Cc4cccs4)c3n2)CC1`, with inactive: 4.62%.
Then `CCCCNC(=O)[C@@H]1CC=C[C@@H]2CCN(Cc3ccccc3)C(=O)[C@@H]21`, with inactive: -2.34%; and `COc1ccc(CCCOC(Cn2ccnc2)c2ccc(OC)cc2)cc1` (configuration not stated), with inactive: 0.536% and inactive: -3.02%.
Then `C=CCN(C(=O)OC(C)(C)C)S(=O)(=O)NCc1ccccc1`, with inactive: -2.17%; and `C[N+]1(CC(=O)c2ccc(-c3ccccc3)cc2)CCOCC1`, with inactive: -9.04%.
For the compound `COc1ccc(C(C)=O)c(O)c1`, the activation was inactive: -21.4%.
As to `Cc1cccc(CNCCn2cc(C(=O)Nc3ccccc3)nn2)c1`, the activation was inactive: -7.41%.
As for `COC(=O)N1CCC2(CCCN(c3ccccn3)C2)CC1`, the activation was inactive: -20.6%.
Then `CC1OC1P(=O)(O)O` (configuration not stated), with inactive: -58.6%; and `COC(=O)/C(=C1/OC(=O)C(c2ccccc2)=C1O)c1ccccc1`, with inactive: -15.8%.
For the compound `Cc1cnc(-n2ncc(C(=O)NCCN3CCOCC3)c2C(C)C)nc1-c1ccc(F)cc1`, the activation is inactive: 5.31%.
Then `CC(=O)Oc1cccc(C(=O)O)c1OC(C)=O`, with inactive: -11.9%.
Turning to `CCN(CC)C(=O)c1cc(S(=O)(=O)Cc2ccccc2)c(N2CCC(c3ccccc3)CC2)cc1N(CC)CCN(C)C`, the activation was inactive: -7.96%.
Then `COc1c(O)cc2c(c1O)[C@@H]1O[C@H](CO)[C@@H](O)[C@H](O)[C@H]1OC2=O`, with inactive: -12.1%; and `CCC1OC(=O)C(C)[C@@H](O[C@H]2C[C@@](C)(OC)C(O)C(C)O2)C(C)[C@@H](O[C@@H]2OC(C)CC(N(C)C)C2O)[C@@](C)(O)CC(C)CN(C)C(C)C(O)[C@]1(C)O` (some centres not stated), with inactive: 2.01%; and `CCCCC(F)(F)[C@@]1(O)CC[C@H]2[C@H](CC(=O)[C@@H]2CCCCCCC(=O)O)O1`, with inactive: -0.512%.
Then `Cc1cnc(SCc2ccccn2)nc1C1CCCN(C(=O)c2ccc(-c3ccccc3F)cc2)C1` (configuration not stated), with inactive: -5.97%.
Take `COc1ccccc1CNc1ncnc2ccc(-c3ccc4c(c3)OCO4)cc12`: the activation is inactive: 4.91%.
Then `COc1cc(-c2coc3cc(OCc4ccccc4)c(OC)c(O)c3c2=O)cc(O)c1OC`, with inactive: 5.27%; and `CCn1c(-c2ccccc2F)nc2cc(NC(C)=O)cc(C(=O)NCC3CCOCC3)c21`, with inactive: -11.3%; and `Cc1cnc(-n2ncc(C(=O)NCCc3ccccn3)c2C)nc1-c1ccc(F)cc1`, with inactive: -7.45%.
